Laboratory results taken from patent US5776901A, “Polypeptide analogues having growth hormone releasing activity” (Administrators of the Tulane Educational Fund, priority 1992, dated 1998).
At least one peptide structure holds a part that was inferred or is arguable (an end, a ring closure or a residue). *1 amine or outer side, *2 acyl side, *3 side chain or, on linkers, in order; H or OH if unused. Where a SMILES comes first, the peptide text is derived from it. [ ]: non-standard residue; d: D form. The star is where a group is joined. Acetyl(2-(4-imidazolyl)) = O=C(Cc1c[nH]cn1)*; Tpi = O=C(O)[C@@H]1Cc2c([nH]c3ccccc23)CN1; dTpi = O=C(O)[C@H]1Cc2c([nH]c3ccccc23)CN1; d2Nal = N[C@H](Cc1ccc2ccccc2c1)C(=O)O; Ethylenediamine = C(CN[*:2])N[*:1]; d3Pal = N[C@H](Cc1cccnc1)C(=O)O; NH(CH2)6NH2 = NCCCCCCN*; NH(CH2)5NH2 = NCCCCCN*; NH(CH2)3NH2 = NCCCN*; X1 = NC1CCC(N*)CC1

Tested on: serum growth hormone (GH)
Test: In vivo GH release in pentobarbital anesthetized rats, i.v. injection
Parameters: species or system rat
Conditions: sacrificed 10 min after injection, N = 6
[1] = Table 5, total dose 3.00 μg i.v.
[2] = Table 5, total dose 10.00 μg i.v.
[3] = Table 5, total dose 0.10 μg i.v.
[4] = Table 5, total dose 0.30 μg i.v.
[5] = Table 5, total dose 1.00 μg i.v.
[6] = Table 6, total dose 0.03 μg i.v.
[7] = Table 6, total dose 0.10 μg i.v.
[8] = Table 6, total dose 0.30 μg i.v.
[9] = Table 6, total dose 1.00 μg i.v.
[10] = Table 3, total dose 0.1 μg i.v., mean
[11] = Table 3, total dose 0.3 μg i.v., mean
[12] = Table 3, total dose 1.0 μg i.v., mean
[13] = Table 3, total dose 3.0 μg i.v., mean
[14] = Table 3, total dose 30.0 μg i.v., mean

With C[C@H](NC(=O)[C@@H](Cc1ccc2ccccc2c1)NC(=O)[C@@H](C)N)C(=O)N1Cc2[nH]c3ccccc3c2C[C@H]1C(=O)N[C@H](Cc1ccccc1)C(=O)N[C@@H](CCCCN)C(N)=O [DAla-DβNal-Ala-Tcc-DPhe-Lys-NH2] (H-[dA][d2Nal]A[Tpi][dF]K-NH2) the “GH Released Serum GH” value [1] was 537 ng/mL and the “GH Released Serum GH” value [2] was 746 ng/mL.
With C[C@H](NC(=O)[C@@H](Cc1ccc2ccccc2c1)NC(=O)Cc1c[nH]cn1)C(=O)N[C@@H](Cc1c[nH]c2ccccc12)C(=O)N[C@H](Cc1ccccc1)C(=O)N[C@@H](CCCCN)C(N)=O [NαIMA-DβNal-Ala-Trp-DPhe-LysNH2] ({Acetyl(2-(4-imidazolyl))}-[d2Nal]AW[dF]K-NH2) the “GH Released Serum GH” value (Table 5, total dose 0.03 μg i.v.) was 696 ng/mL, the “GH Released Serum GH” value [3] was 1049 ng/mL and the “GH Released Serum GH” value [4] was 2567 ng/mL. For the same compound, the “GH Released Serum GH” value [5] was 2001 ng/mL.
For C[C@H](NC(=O)[C@@H](Cc1ccc2ccccc2c1)NC(=O)Cc1c[nH]cn1)C(=O)N[C@@H](Cc1c[nH]c2ccccc12)C(=O)N[C@H](Cc1ccccc1)C(=O)N[C@@H](C)C(=O)NCCCN [IMA-DβNal-Ala-Trp-DPhe-Ala-1,3,diaminopropane] ({Acetyl(2-(4-imidazolyl))}-[d2Nal]AW[dF]A-{NH(CH2)3NH2}), the “GH Released Serum GH” value [6] was 566 ng/mL, the “GH Released Serum GH” value [7] was 645 ng/mL and the “GH Released Serum GH” value [8] was 1428 ng/mL. For the same compound, the “GH Released Serum GH” value [9] was 2972 ng/mL.
In the case of CC(C)C[C@@H](N)C(=O)N[C@H](Cc1ccc2ccccc2c1)C(=O)N[C@@H](C)C(=O)N[C@@H](Cc1c[nH]c2ccccc12)C(=O)N[C@H](Cc1ccccc1)C(=O)N[C@@H](CCCCN)C(N)=O [D-Leu-DβNal-Ala-Trp-DPhe-Lys-NH2] (H-[dL][d2Nal]AW[dF]K-NH2), the “GH Released Serum GH” value [10] is reported as 256 ng/mL, the “GH Released Serum GH” value [11] is reported as 452 ng/mL and the “GH Released Serum GH” value [12] is reported as 355 ng/mL.
For C[C@H](NC(=O)[C@@H](Cc1ccc2ccccc2c1)NC(=O)[C@@H](C)NC(=O)[C@@H](N)CCCCN)C(=O)N[C@@H](Cc1c[nH]c2ccccc12)C(=O)N[C@H](Cc1ccccc1)C(=O)N[C@@H](CCCCN)C(N)=O [Lys-DAla-DβNal-Ala-Trp-DPhe-Lys-NH2] (H-K[dA][d2Nal]AW[dF]K-NH2), the “GH Released Serum GH” value [3] was 216 ng/mL, the “GH Released Serum GH” value [4] was 269 ng/mL and the “GH Released Serum GH” value [5] was 432 ng/mL. For the same compound, the “GH Released Serum GH” value [1] was 771 ng/mL.
For C[C@H](NC(=O)[C@@H](Cc1ccc2ccccc2c1)NC(=O)[C@@H](C)N)C(=O)N[C@@H](Cc1c[nH]c2ccccc12)C(=O)N[C@H](Cc1cccnc1)C(=O)N[C@@H](CCCCN)C(=O)O [DAla-DβNal-Ala-Trp-DPal-Lys-OH] (H-[dA][d2Nal]AW[d3Pal]K-OH), the “GH Released Serum GH” value [3] was 928 ng/mL and the “GH Released Serum GH” value [4] was 1782 ng/mL.
For C[C@H](NC(=O)[C@@H](Cc1ccc2ccccc2c1)NC(=O)[C@@H](C)N)C(=O)N[C@@H](Cc1c[nH]c2ccccc12)C(=O)N[C@H](Cc1c[nH]cn1)C(=O)N[C@@H](CCCCN)C(N)=O [DAla-DβNal-Ala-Trp-DHis-LysNH2] (H-[dA][d2Nal]AW[dH]K-NH2), the “GH Released Serum GH” value [6] was 287 ng/mL, the “GH Released Serum GH” value [7] was 131 ng/mL and the “GH Released Serum GH” value [8] was 337 ng/mL. The “GH Released Serum GH” value [9] was 457 ng/mL.
With C[C@H](N)C(=O)N[C@H](Cc1ccc2ccccc2c1)C(=O)N[C@@H](C)C(=O)N[C@@H](Cc1c[nH]c2ccccc12)C(=O)N[C@H](Cc1ccccc1)C(=O)NCCCCCN [Ala-DβNal-Ala-Trp-DPhe-NHCH2 CH2 CH2 CH2 CH2 NH2] (H-A[d2Nal]AW[dF]-{NH(CH2)5NH2}) the “GH Released Serum GH” value [11] was 284 ng/mL, the “GH Released Serum GH” value [12] was 527 ng/mL and the “GH Released Serum GH” value [13] was 816 ng/mL. For the same compound, the “GH Released Serum GH” value [14] was 3650 ng/mL.
C[C@H](NC(=O)[C@@H](Cc1ccccc1)NC(=O)[C@H](Cc1c[nH]c2ccccc12)NC(=O)[C@H](C)NC(=O)[C@@H](Cc1ccc2ccccc2c1)NC(=O)[C@@H](C)N)C(=O)NCCCN [DAla-DβNal-Ala-Trp-DPhe-Ala-1,3-diaminopropane] (H-[dA][d2Nal]AW[dF]A-{NH(CH2)3NH2}) was tested, and the “GH Released Serum GH” value [6] was 444 ng/mL, the “GH Released Serum GH” value [7] was 517 ng/mL and the “GH Released Serum GH” value [8] was 2341 ng/mL. The “GH Released Serum GH” value [9] was 2468 ng/mL.
With CC(=O)NCC(=O)N[C@H](Cc1ccc2ccccc2c1)C(=O)N[C@@H](C)C(=O)N[C@@H](Cc1c[nH]c2ccccc12)C(=O)N[C@H](Cc1ccccc1)C(=O)N[C@@H](CCCCN)C(N)=O [NαAcetyl-Gly-DβNal-Ala-Trp-DPhe-Lys-NH2] (Ac-G[d2Nal]AW[dF]K-NH2) the “GH Released Serum GH” value [11] was 268 ng/mL, the “GH Released Serum GH” value [12] was 599 ng/mL and the “GH Released Serum GH” value [13] was 626 ng/mL.
C[C@H](NC(=O)[C@@H](Cc1ccc2ccccc2c1)NC(=O)[C@H](N)CCCCN)C(=O)N[C@@H](Cc1c[nH]c2ccccc12)C(=O)N[C@H](Cc1ccccc1)C(=O)N[C@@H](CCCCN)C(N)=O [DLys-DβNal-Ala-Trp-DPhe-Lys-NH2] (H-[dK][d2Nal]AW[dF]K-NH2) was tested, and the “GH Released Serum GH” value [10] was 262 ng/mL, the “GH Released Serum GH” value [11] was 340 ng/mL and the “GH Released Serum GH” value [12] was 335 ng/mL.
C[C@@H](N)C(=O)N[C@H](Cc1ccc2ccccc2c1)C(=O)NCC(=O)N[C@@H](Cc1c[nH]c2ccccc12)C(=O)N[C@H](Cc1ccccc1)C(=O)N[C@@H](CCCCN)C(N)=O [DAla-DβNal-Gly-Trp-DPhe-Lys-NH2] (H-[dA][d2Nal]GW[dF]K-NH2) was tested, and the “GH Released Serum GH” value [3] was 226 ng/mL, the “GH Released Serum GH” value [4] was 170 ng/mL and the “GH Released Serum GH” value [5] was 414 ng/mL. The “GH Released Serum GH” value [1] was 713 ng/mL.
C[C@H](NC(=O)[C@@H](Cc1ccc2ccccc2c1)NC(=O)Cc1c[nH]cn1)C(=O)N[C@@H](Cc1c[nH]c2ccccc12)C(=O)N[C@H](Cc1ccccc1)C(=O)N[C@@H](C)C(=O)NCCCCCCN [IMA-DβNal-Ala-Trp-DPhe-Ala-1,6 hexyldiamine] ({Acetyl(2-(4-imidazolyl))}-[d2Nal]AW[dF]A-{NH(CH2)6NH2}) was tested, and the “GH Released Serum GH” value [6] was 332 ng/mL, the “GH Released Serum GH” value [7] was 609 ng/mL and the “GH Released Serum GH” value [8] was 1139 ng/mL. The “GH Released Serum GH” value [9] was 1996 ng/mL.
In the case of C[C@H](NC(=O)[C@@H](Cc1ccc2ccccc2c1)NC(=O)[C@@H](C)N)C(=O)N[C@@H](Cc1c[nH]c2ccccc12)C(=O)N[C@H](Cc1ccccc1)C(N)=O [DAla-DβNal-Ala-Trp-DPhe-NH2] (H-[dA][d2Nal]AW[dF]-NH2), the “GH Released Serum GH” value [4] is reported as 340 ng/mL, the “GH Released Serum GH” value [5] is reported as 1205 ng/mL and the “GH Released Serum GH” value [1] is reported as 1703 ng/mL. The “GH Released Serum GH” value [2] was 2741 ng/mL.
In the case of C[C@H](NC(=O)[C@@H](Cc1ccc2ccccc2c1)NC(=O)[C@@H](C)N)C(=O)N[C@@H](Cc1c[nH]c2ccccc12)C(=O)NC1CCC(N)CC1 (stereo partly drawn) [DAla-DβNal-Ala-Trp-NH-Chx-NH2] (H-[dA][d2Nal]AW-X1), the “GH Released Serum GH” value [7] is reported as 151 ng/mL, the “GH Released Serum GH” value [8] is reported as 251 ng/mL and the “GH Released Serum GH” value [9] is reported as 227 ng/mL. For the same compound, the “GH Released Serum GH” value (Table 6, total dose 3.00 μg i.v.) was 349 ng/mL.
In the case of C[C@H](NC(=O)[C@H]1Cc2c([nH]c3ccccc23)CN1C(=O)[C@@H](C)N)C(=O)N[C@@H](Cc1c[nH]c2ccccc12)C(=O)N[C@H](Cc1ccccc1)C(=O)N[C@@H](CCCCN)C(N)=O [DAla-DTcc-Ala-Trp-DPhe-Lys-NH2] (H-[dA][dTpi]AW[dF]K-NH2), the “GH Released Serum GH” value [3] is reported as 165 ng/mL, the “GH Released Serum GH” value [4] is reported as 183 ng/mL and the “GH Released Serum GH” value [5] is reported as 207 ng/mL. The “GH Released Serum GH” value [1] was 153 ng/mL and the “GH Released Serum GH” value [2] was 269 ng/mL.
C[C@H](N)C(=O)N[C@H](Cc1ccc2ccccc2c1)C(=O)N[C@@H](C)C(=O)N[C@@H](Cc1c[nH]c2ccccc12)C(=O)N[C@H](Cc1ccccc1)C(=O)NCCN [Ala-DβNal-Ala-Trp-DPhe-NHCH2 CH2 NH2] (H-A[d2Nal]AW[dF]-Ethylenediamine) was tested, and the “GH Released Serum GH” value [11] was 211 ng/mL, the “GH Released Serum GH” value [12] was 468 ng/mL and the “GH Released Serum GH” value [13] was 877 ng/mL. For the same compound, the “GH Released Serum GH” value [14] was 2325 ng/mL.
